No constants are given. Whether binding was seen depends on the method and setting. For part of these data: Binding seen in cells or lysates may run through a third protein. Some entries that bind do so weakly or less than the wild type. For part of these data: Sequences can lack the tags named with a protein.
Legend:
NOX1-YFP fusion protein = NOX1-YFP fusion protein (UniProt Q9Y5S8); assay: co-IP; HEK293 cells transiently transfected with GFP, NOX1-YFP, NOX2-YFP or NOX4-YFP; IP with anti-GFP antibody; Western blot for CANX
NOX2-YFP fusion protein = target: T1, NOX2-YFP fusion protein (UniProt P04839); assay: as above
T1 sequence: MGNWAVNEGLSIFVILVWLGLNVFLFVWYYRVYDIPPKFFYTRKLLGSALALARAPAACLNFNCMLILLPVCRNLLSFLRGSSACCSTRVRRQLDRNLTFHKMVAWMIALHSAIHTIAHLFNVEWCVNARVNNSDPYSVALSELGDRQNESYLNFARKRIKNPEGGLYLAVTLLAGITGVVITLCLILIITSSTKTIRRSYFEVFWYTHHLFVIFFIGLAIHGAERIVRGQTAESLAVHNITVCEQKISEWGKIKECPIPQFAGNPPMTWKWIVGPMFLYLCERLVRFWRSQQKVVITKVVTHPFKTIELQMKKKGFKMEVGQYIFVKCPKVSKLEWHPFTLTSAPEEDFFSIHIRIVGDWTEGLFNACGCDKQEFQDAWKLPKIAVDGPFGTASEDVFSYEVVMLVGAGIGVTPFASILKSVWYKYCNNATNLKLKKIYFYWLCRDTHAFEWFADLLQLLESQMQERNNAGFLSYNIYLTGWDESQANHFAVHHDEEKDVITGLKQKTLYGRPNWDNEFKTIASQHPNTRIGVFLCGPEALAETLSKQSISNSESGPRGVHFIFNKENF

The chains behind the UniProt entries cited, without tags or fusion partners.
UniProt Q9Y5S8: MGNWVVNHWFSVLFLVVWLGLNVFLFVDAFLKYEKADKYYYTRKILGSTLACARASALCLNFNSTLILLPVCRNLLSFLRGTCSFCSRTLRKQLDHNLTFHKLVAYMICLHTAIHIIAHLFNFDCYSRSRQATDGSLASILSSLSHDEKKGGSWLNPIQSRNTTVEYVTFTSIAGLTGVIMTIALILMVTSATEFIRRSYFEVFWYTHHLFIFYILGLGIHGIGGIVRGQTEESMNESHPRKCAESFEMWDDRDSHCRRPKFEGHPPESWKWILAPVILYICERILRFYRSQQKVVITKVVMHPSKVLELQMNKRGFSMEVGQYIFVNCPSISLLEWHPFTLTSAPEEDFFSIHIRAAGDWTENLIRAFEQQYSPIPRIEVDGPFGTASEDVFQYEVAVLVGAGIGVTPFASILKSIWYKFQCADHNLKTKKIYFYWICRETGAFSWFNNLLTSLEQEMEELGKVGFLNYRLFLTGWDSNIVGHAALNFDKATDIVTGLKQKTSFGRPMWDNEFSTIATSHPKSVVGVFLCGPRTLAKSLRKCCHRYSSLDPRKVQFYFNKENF

NOX4-YFP fusion protein = target: T2, NOX4-YFP fusion protein (UniProt Q9NPH5); assay: as above
T2 sequence: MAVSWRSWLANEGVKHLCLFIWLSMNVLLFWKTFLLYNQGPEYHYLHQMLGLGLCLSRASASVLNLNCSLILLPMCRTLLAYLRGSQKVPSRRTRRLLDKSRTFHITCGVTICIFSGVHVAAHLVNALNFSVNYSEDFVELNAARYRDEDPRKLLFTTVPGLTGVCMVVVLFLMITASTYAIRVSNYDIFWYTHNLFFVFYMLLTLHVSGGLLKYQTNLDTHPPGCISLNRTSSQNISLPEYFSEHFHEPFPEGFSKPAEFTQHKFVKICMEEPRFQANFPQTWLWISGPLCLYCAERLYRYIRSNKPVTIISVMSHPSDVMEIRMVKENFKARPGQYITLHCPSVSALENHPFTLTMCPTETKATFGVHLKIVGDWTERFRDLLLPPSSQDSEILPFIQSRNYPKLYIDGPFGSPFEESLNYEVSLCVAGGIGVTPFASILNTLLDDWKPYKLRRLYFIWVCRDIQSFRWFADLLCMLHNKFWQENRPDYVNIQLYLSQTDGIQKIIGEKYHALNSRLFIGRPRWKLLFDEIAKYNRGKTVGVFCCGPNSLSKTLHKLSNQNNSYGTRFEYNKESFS

[1] = target: T3, NADPH oxidase 4 (human NOX4), overexpressed in HEK293 cells (human) (UniProt Q9NPH5); assay: co-IP; IP with NOX4 antibody on magnetic protein G beads from Ctl and NOX4-HEK293 cells (1% digitonin lysate or digitonin-solubilised 100,000 x g membranes); Western blot for CANX
T3 sequence: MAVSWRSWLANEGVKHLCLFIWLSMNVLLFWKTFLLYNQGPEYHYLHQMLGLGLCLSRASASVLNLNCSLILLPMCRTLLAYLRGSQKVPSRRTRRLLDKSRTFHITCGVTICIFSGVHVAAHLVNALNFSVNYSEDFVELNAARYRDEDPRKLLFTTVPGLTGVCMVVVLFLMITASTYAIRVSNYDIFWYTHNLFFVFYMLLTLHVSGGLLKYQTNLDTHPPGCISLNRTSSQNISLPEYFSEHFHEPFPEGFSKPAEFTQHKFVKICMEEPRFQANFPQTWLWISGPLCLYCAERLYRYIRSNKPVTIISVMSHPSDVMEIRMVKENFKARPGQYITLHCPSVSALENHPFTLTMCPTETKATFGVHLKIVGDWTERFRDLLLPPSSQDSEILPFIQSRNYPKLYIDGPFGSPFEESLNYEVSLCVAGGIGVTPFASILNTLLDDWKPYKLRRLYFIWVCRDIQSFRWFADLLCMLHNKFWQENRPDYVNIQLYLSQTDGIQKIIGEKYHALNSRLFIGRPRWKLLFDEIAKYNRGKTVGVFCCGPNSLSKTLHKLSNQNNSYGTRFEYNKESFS

[2] = target: T3, NADPH oxidase 4 (human NOX4), overexpressed in HEK293 cells (human); assay: native gel or EMSA; BN-PAGE of 15,000 x g membrane pellets of NOX4-HEK293 cells solubilised with digitonin (6 g/g protein); MS-based complexome profiling of 40 gel fractions and two-dimensional BN/SDS-PAGE Western blot; co-migration
[3] = target: T3, NADPH oxidase 4 (human NOX4), overexpressed in HEK293 cells (human); assay: proximity ligation; Duolink PLA on formaldehyde-fixed, Triton-permeabilised cells with rabbit monoclonal anti-NOX4 and anti-CANX (sc-6465) antibodies; controls were the CANX antibody blocking peptide, omission of the NOX4 antibody, and Nox4-/- or Canx-/- cells; done in NOX4-HEK293 cells, mouse podocytes and MEFs

B1: Calnexin, endogenous in HEK293 cells (protein, UniProt P27824 21-592)
chain: HDGHDDDVIDIEDDLDDVIEEVEDSKPDTTAPPSSPKVTYKAPVPTGEVYFADSFDRGTLSGWILSKAKKDDTDDEIAKYDGKWEVEEMKESKLPGDKGLVLMSRAKHHAISAKLNKPFLFDTKPLIVQYEVNFQNGIECGGAYVKLLSKTPELNLDQFHDKTPYTIMFGPDKCGEDYKLHFIFRHKNPKTGIYEEKHAKRPDADLKTYFTDKKTHLYTLILNPDNSFEILVDQSVVNSGNLLNDMTPPVNPSREIEDPEDRKPEDWDERPKIPDPEAVKPDDWDEDAPAKIPDEEATKPEGWLDDEPEYVPDPDAEKPEDWDEDMDGEWEAPQIANPRCESAPGCGVWQRPVIDNPNYKGKWKPPMIDNPSYQGIWKPRKIPNPDFFEDLEPFRMTPFSAIGLELWSMTSDIFFDNFIICADRRIVDDWANDGWGLKKAADGAAEPGVVGQMIEAAEERPWLWVVYILTVALPVFLVILFCCSGKKQTSGMEYKKTDAPQPDVKEEEEEKEEEKDKGDEEEEGEEKLEEKQKSDAEEDGGTVSQEEEDRKPKAEEDEILNRSPRNRKPRRE
For B1, the binding (NOX1-YFP fusion protein) was “no binding”, the binding (NOX2-YFP fusion protein) was “no binding” and the binding (NOX4-YFP fusion protein) was “binds”. For the same binder, the binding [1] was “binds”, the binding [2] was “binds” and the binding [3] was “binds”.
